According to the RNAGym collection of RNA variant scans (doi:10.1093/nar/gkz1192):
The source gives no read counts; variants with many changes may rest on few reads.

B1: CPEB3 Ribozyme (parent)
chain: UAACAGGGGGCCACAGCAGAAGCGUUCACGUCGCAGCCCCUGUCAGAUUCUGGUGAAUCUGCGAAUUCUGCUGUAUAUCUC

Variants of: B1
Test: self-cleavage, relative activity (ratio to wild type); higher = more cleavage; in vitro, sequencing
Method in brief: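 Relative activity was defined as the cleaved/total read fraction for a variant divided by the same fraction for the unmutated ribozyme. CPEB3 self-cleaving ribozyme libraries were made by rounds of error-prone PCR, barcoded, and transcribed in vitro with T7 RNA polymerase for 5 hours at 37°C, and cleavage ran through transcription plus a 15 min DNase I step before EDTA. Illumina sequencing of template-switched reverse transcripts gave the reads, and DNA sequencing mapped the barcodes. Averages come from three batches, using variants with at least 5 reads.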

| Variant | self-cleavage |
| --- | --- |
| G7A C27U U49C U66C | 0.14 |
| G7A C29U G53U U58A U72C U78C C81A | 0.05 |
| G7A C32U A35G A45G U72A | 0.09 |
| G7A C32U C38G A45U U49C U51A A57G | 0.03 |
| G7A C34A U74C | 0.18 |
| G7A C34U G53U U54C U72A | 0.05 |
| G7A C34U G70A | 0.06 |
| G7A C37A U60G | 0.22 |
| G7A C37A U67C | 0.13 |
| G7A C59U A64C U76A | 0.04 |
| G7A G8U A47G A57G | 0.09 |
| G7A G9A U26C U60C A64G | 0.11 |
| G7A G9U C40U A45G C50U | 0.05 |
| G7A G9U U54A | 0.43 |
| G7A G10A A20U G33C | 0.12 |
| G7A G10A A20U U66A | 0.15 |
| G7A G10A G22A U72C U76G | 0.15 |
| G7A G10A U69C U78C | 0.06 |
| G7A G10C U26A U54C A56G G63A | 0.05 |
| G7A G22U G53A U76A | 0.05 |
| G7A G22U U51C U67C | 0.09 |

| Variant | self-cleavage |
| --- | --- |
| G7A G24A C40U C62U | 0.06 |
| G7A G24A U26C A35G A45G U49C U72C | 0.15 |
| G7A G30A A77U U80C | 0.05 |
| G7A G33A C44U U74C U80A | 0.22 |
| G7A G46C U49C U58C U80C | 0.05 |
| G7A G52A A65G U80C | 0.06 |
| G7A U25A C32A A45U A56C | 0.12 |
| G7A U25C A45U | 0.05 |
| G7A U25C A56U G70C | 0.17 |
| G7A U25C A57G | 0.16 |
| G7A U25C G33A C40U U41C U67C | 0.06 |
| G7A U25C U41A U66C U67A | 0.07 |
| G7A U25C U43G U80A | 0.06 |
| G7A U26A A28U U43A A45G | 0.08 |
| G7A U26A U31A A47G A56G A64G | 0.04 |
| G7A U26C A35U A45G U78C | 0.04 |
| G7A U26C A35U A56G U72A | 0.04 |
| G7A U26C A57G U69C U80C | 0.05 |
| G7A U26C C38A G46A | 0.23 |
| G7A U26C C38U U48C C59G U76A | 0.03 |
| G7A U26C G30C U48C | 0.08 |

| Variant | self-cleavage |
| --- | --- |
| G7A U26C U41A A64G | 0.17 |
| G7A U26G A28G U48C U60A | 0.05 |
| G7A U31C A35U U41A | 0.14 |
| G7A U31C U43G A56G A75G | 0.06 |
| G7A U31C U49C U54A U72C | 0.04 |
| G7A U41A A57G A64G U66C | 0.15 |
| G7A U41A G55U A57G | 0.16 |
| G7A U41A U51A | 0.25 |
| G7A U41A U74C U78C | 0.06 |
| G7A U41C U48C G52A U58C | 0.07 |
| G7A U43A A65C U80C | 0.23 |
| G7A U43A A65G U69C | 0.2 |
| G7A U43A U54A | 0.1 |
| G7A U43A U74A U80C C81U | 0.44 |
| G7A U43C A57G | 0.44 |
| G7A U43C A64U | 0.14 |
| G7A U43C U60A A77G | 0.05 |
| G7A U43C U74G U80A | 0.21 |
| G7A U48C U49A U54C A64U U69C | 0.04 |
| G7A U48C U58C U60A A64G G73U | 0.05 |
| G7A U48G U60C U69C | 0.13 |

| Variant | self-cleavage |
| --- | --- |
| G7A U49A A77G | 0.08 |
| G7A U49A U60C U67A U69C | 0.06 |
| G7A U49C U72A | 0.06 |
| G7A U51A G73A | 0.09 |
| G7A U51C A64G | 0.06 |
| G7A U54C G55A U69A U74C | 0.03 |
| G7A U54C U60C A64G | 0.06 |
| G7A U58C A64G U80G | 0.06 |
| G7A U60A A64G U67C | 0.07 |
| G7A U60C A64U | 0.14 |
| G7A U66C U74C | 0.22 |
| G7A U69C A77U | 0.13 |
| G7A U72A A77G U78C | 0.28 |
| G7C A13G A18U U43C | 0.22 |
| G7C A13G A20U U60A | 0.08 |
| G7C A13G G61U U69A U74C | 0.12 |
| G7C A13G U43C | 0.42 |
| G7C A13G U43C A56G | 0.05 |
| G7C A13G U72G | 0.17 |
| G7C A15G G24U U25C U26C A47C A65G | 0.04 |
